Test results published in PubChem BioAssay (Tox21).
Several values for one entry are separate records, joined by “and”; a condition that tells them apart may be missing. Identical values can stand only once. The shares of active, inactive and inconclusive entries below differ from those in the screen. For part of these data: Potencies of inconclusive entries are doubtful fits and often do not repeat. The source holds several records for some structures; these can differ, active in one and inactive in another. Activity calls are given as the source filed them. Unless noted, calls follow the shape of the dose curve; as a rule, active = well fitted curve in the direction sought with a large enough effect in the repeat runs; inconclusive = weak or mixed curves; inactive = no such curve, though single readings can be large; an effect the other way counts as inactive or inconclusive.

Tests used:
[1] = molecular target: Peroxisome proliferator-activated receptor gamma (Homo sapiens) (UniProt P37231); test: qHTS assay to identify small molecule antagonists of the peroxisome proliferator-activated receptor gamma (PPARg) signaling pathway (AID 743191; calls by dose curve; also: nearly all actives have a fitted effect of over 30% in size; also: potency is read from the fitted curve at half-maximal effect; as to ratio activity, negative = inhibition: % is scaled to controls: 0 for no effect and ±100 for the full control effect); details: HEK293H PPARg-UAS-bla, beta-lactamase ratio, antagonist, 17 h
How it was run: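 GeneBLAzer PPARg UAS-bla HEK293H cells, 5 h post-plating, exposed to compounds 17 h at 37C. LiveBLAzer B/G FRET substrate added for 1 h at room temperature; beta-lactamase reporter read by fluorescence intensity.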

[2] = qHTS assay to identify small molecule antagonists of the peroxisome proliferator-activated receptor gamma (PPARg) signaling pathway - cell viability counter screen (AID 743194); details: PPARg-bla HEK293H viability, CellTiter-Glo luminescence, 17 h; Potency: co-treated with 50 nM rosiglitazone unless noted; activity change, negative = cytotoxicity: at 62.6 µM (top of the series), co-treated with 50 nM rosiglitazone unless noted; also: potency is read from the fitted curve at half-maximal effect; nearly all actives have a fitted effect of over 55% in size
How it was run: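 Cytotoxicity counter screen in PPARg-bla HEK293H cells, same wells as reporter assay. Compounds plus 50 nM rosiglitazone (final) for 17 h at 37 C, then viability read by CellTiter-Glo luminescence.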

[3] = qHTS assay for small molecule agonists of the antioxidant response element (ARE) signaling pathway (AID 743202; active = well fitted activation curve with a large enough effect in the signal ratio in the repeat runs, not every such curve was filed as active; inconclusive = weak or mixed curves, or effect the other way; inactive = no such curve, though single readings can be large or run the other way; the % refers to the signal ratio; also: potency is read from the fitted curve at half-maximal effect; as to activation: % is scaled to controls: 0 for no effect and ±100 for the full control effect); details: HepG2 ARE-bla reporter, beta-lactamase FRET, 16 h
How it was run: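 ARE-bla HepG2 cells (beta-lactamase reporter under the antioxidant response element), plated 5 hours, then exposed to compounds 16 hours at 37 C. LiveBLAzer B/G FRET substrate added for 2 hours at room temperature; fluorescence intensity read.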

[4] = qHTS assay for small molecule agonists of the antioxidant response element (ARE) signaling pathway - cell viability counter screen (AID 743203; calls by dose curve; also: nearly all actives have a fitted effect of over 55% in size; also: potency is read from the fitted curve at half-maximal effect)
How it was run: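 Cells (ARE-bla HepG2, 2,000/well) receive DMSO-dissolved compounds after a 5 hrs rest. Plates incubate 16 hrs at 37C/5% CO2. CellTiter-Glo luminescence is then recorded after 30 min at room temperature.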

[5] = qHTS assay for small molecule activators of the heat shock response signaling pathway (AID 743210; active = well fitted activation curve with a large enough effect in the signal ratio in the repeat runs, with a control signal flat, not every such curve was filed as active; inconclusive = weak or mixed curves; the % refers to the signal ratio; also: potency is read from the fitted curve at half-maximal effect); details: HeLa HSE-bla reporter, beta-lactamase ratio, 5 h; activation: at 62.6 µM (top of the series)
How it was run: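 HSE-bla HeLa cells (beta-lactamase reporter under heat shock response elements), plated overnight, then exposed to compounds 5 h at 37 C; LiveBLAzer B/G FRET substrate added, 2.5 h at room temperature, fluorescence intensity read.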

[6] = qHTS assay to identify small molecule agonists of the peroxisome proliferator-activated receptor delta (PPARd) signaling pathway - cell viability counter screen (AID 743211); details: PPARd-bla HEK293H viability, CellTiter-Glo luminescence, 17 h; activity change, negative = cytotoxicity: at 62.6 µM (top of the series) unless noted; also: potency is read from the fitted curve at half-maximal effect; nearly all actives have a fitted effect of over 55% in size
How it was run: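 Following 5 h plating at 37 C and 5% CO2, PPARd UAS-bla HEK293H cells took up test compounds for 17 h. Viability was quantified by luminescence 30 min after CellTiter-Glo addition at room temperature.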

[7] = molecular target: Peroxisome proliferator-activated receptor delta (Homo sapiens) (UniProt Q03181); test: qHTS assay to identify small molecule agonists of the peroxisome proliferator-activated receptor delta (PPARd) signaling pathway (AID 743212; calls by dose curve; also: potency is read from the fitted curve at half-maximal effect); details: HEK293H PPARd-UAS-bla, beta-lactamase FRET ratio, 17 h; activation: at 62.6 µM (top of the series) unless noted
How it was run: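 GeneBLAzer UAS-bla HEK293H cells carrying a PPARδ construct were exposed to compounds at 37 °C. Beta-lactamase activity was read by FRET fluorescence after 2 h at room temperature with LiveBLAzer B/G substrate.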

[8] = qHTS assay to identify small molecule antagonists of the peroxisome proliferator-activated receptor delta (PPARd) signaling pathway - cell viability counter screen (AID 743213); details: PPARd-bla HEK293H viability, CellTiter-Glo luminescence, 17 h; viability change, negative = cytotoxic: at 62 µM (top of the series) unless noted; also: potency is read from the fitted curve at half-maximal effect; nearly all actives have a fitted effect of over 50% in size
How it was run: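 PPARd-bla HEK293H cells (3000/well) got compound plus 300 nM L165041 agonist for 17 h at 37 C. Viability in the same wells came from CellTiter-Glo luminescence after 30 min at room temperature.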

[9] = molecular target: Peroxisome proliferator-activated receptor delta (Homo sapiens) (UniProt Q03181); test: qHTS assay to identify small molecule antagonists of the peroxisome proliferator-activated receptor delta (PPARd) signaling pathway (AID 743215; active = well fitted inhibition curve with a large enough effect in the signal ratio in the repeat runs, not every such curve was filed as active; inconclusive = weak or mixed curves, or effect the other way; inactive = no such curve, though single readings can be large or run the other way; the % refers to the signal ratio;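 also: cells stimulated with agonist L165041 at 300 nM final during compound exposure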; also: potency is read from the fitted curve at half-maximal effect); details: HEK293H PPARd-UAS-bla, beta-lactamase FRET ratio, antagonist, 17 h; ratio activity, negative = inhibition: at 62 µM (top of the series) unless noted
How it was run: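 Antagonist-mode beta-lactamase reporter screen: HEK293H cells with UAS-bla under PPARd control, stimulated by 300 nM L165041 (final) alongside test compound for 17 h at 37 C, then FRET fluorescence after 2 h substrate incubation.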

[10] = molecular target: Bile acid receptor (Homo sapiens) (UniProt Q96RI1); test: qHTS assay to identify small molecule antagonists of the farnesoid-X-receptor (FXR) signaling pathway (AID 743217; active = well fitted inhibition curve with a large enough effect in the signal ratio in the repeat runs, not every such curve was filed as active; inconclusive = weak or mixed curves, or effect the other way; inactive = no such curve, though single readings can be large or run the other way; the % refers to the signal ratio; also: potency is read from the fitted curve at half-maximal effect); details: HEK293T FXR-UAS-bla, beta-lactamase ratio, CDCA-stimulated, 16 h; activity change, negative = inhibition: at 62.6 µM (top of the series) unless noted
How it was run: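 Beta-lactamase reporter under UAS control in HEK 293T cells; compound exposure 16 h at 37 °C in the presence of chenodeoxycholic acid (50 uM final); signal from B/G FRET substrate after 2 h at room temperature.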

[11] = molecular target: Vitamin D3 receptor (Homo sapiens) (UniProt P11473); test: qHTS assay to identify small molecule antagonists of the vitamin D receptor (VDR) signaling pathway (AID 743223; active = well fitted inhibition curve with a large enough effect in the signal ratio in the repeat runs, not every such curve was filed as active; inconclusive = weak or mixed curves, or effect the other way; inactive = no such curve, though single readings can be large or run the other way; the % refers to the signal ratio; also: potency is read from the fitted curve at half-maximal effect); details: VDR-UAS-bla HEK293T, beta-lactamase FRET ratio, 16 h; activity change, negative = inhibition: at 61 µM (top of the series) unless noted
How it was run: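 Beta-lactamase activity in VDR-bla cells is measured by FRET substrate fluorescence (2 h, room temperature) after cells spend 16 h at 37C with test compound and 3 nM final 1alpha,25-dihydroxyvitamin D3.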

[12] = qHTS assay to identify small molecule agonists of the vitamin D receptor (VDR) signaling pathway - cell viability counter screen (AID 743224); also: potency is read from the fitted curve at half-maximal effect; nearly all actives have a fitted effect of over 50% in size
How it was run: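 VDR-bla cell line, quantitative HTS format; 16 h compound incubation (37C, 5% CO2); ATP-based CellTiter-Glo luminescence measured in the reporter assay wells.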

[13] = qHTS assay to identify small molecule antagonists of the vitamin D receptor (VDR) signaling pathway - cell viability counter screen (AID 743225); details: VDR-bla HEK293T viability, CellTiter-Glo luminescence, 16 h; viability change, negative = cytotoxic: at 61 µM (top of the series) unless noted; also: potency is read from the fitted curve at half-maximal effect; nearly all actives have a fitted effect of over 50% in size
How it was run: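 In this counter screen, VDR-bla HEK 293T cells receive test compound plus 3 nM final calcitriol for 16 h at 37C. Room-temperature steps of 2 h with the beta-lactamase substrate, then 30 min with CellTiter-Glo, precede the luminescence read.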

[14] = qHTS assay for small molecule activators of the heat shock response signaling pathway - cell viability counter screen (AID 743209); details: HSE-bla HeLa viability, CellTiter-Glo luminescence, 5 h; activity change, negative = cytotoxicity: at 62.6 µM (top of the series) unless noted; also: potency is read from the fitted curve at half-maximal effect; nearly all actives have a fitted effect of over 50% in size
How it was run: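 Quantitative HTS format, Tox21 10K library. HeLa cells carrying an HSE-driven beta-lactamase reporter were treated 5 h at 37 C, then assessed for viability by CellTiter-Glo luminescence.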

[15] = qHTS assay to identify small molecule agonists of the farnesoid-X-receptor (FXR) signaling pathway - cell viability counter screen (AID 743218); details: FXR-bla HEK293T viability, CellTiter-Glo luminescence, 16 h; viability change, negative = cytotoxic: at 62.6 µM (top of the series) unless noted; also: nearly all actives have a fitted effect of over 45% in size; also: potency is read from the fitted curve at half-maximal effect; as to viability change, negative = cytotoxic: % is scaled to controls: 0 for no effect and ±100 for the full control effect
How it was run: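 In GeneBLAzer FXR-UAS-bla HEK 293T cells, compounds act for 16 h at 37 C. Cell viability is then scored in the reporter wells by CellTiter-Glo, 30 min at RT, luminescence.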

[16] = qHTS assay to identify small molecule antagonists of the farnesoid-X-receptor (FXR) signaling pathway - cell viability counter screen (AID 743221; active = well fitted cell-killing curve with a large enough effect in the repeat runs, not every such curve was filed as active; inconclusive = weak or mixed curves, or effect the other way; inactive = no such curve, though single readings can be large or run the other way); details: FXR-bla HEK293T viability, CellTiter-Glo luminescence, 16 h; activity change, negative = cytotoxicity: at 62.6 µM (top of the series) unless noted
How it was run: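 Compound effects on cell number were measured as CellTiter-Glo luminescence in HEK 293T cells expressing FXR-UAS-bla, after 16 h at 37 C with 50 uM CDCA (final).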

[17] = qHTS assay to identify small molecule agonists of the endoplasmic reticulum stress response signaling pathway (AID 1159516; active = well fitted activation curve with a large enough effect in the signal ratio in the repeat runs, not every such curve was filed as active; inconclusive = weak or mixed curves, or effect the other way; the % refers to the signal ratio; also: % is scaled to controls: 0 for no effect and ±100 for the full control effect); details: ESRE-bla HeLa, ER stress beta-lactamase reporter, 5 h; activation: at 61 µM (top of the series) unless noted
How it was run: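 ER stress element reporter (bla) in HeLa. 1,500 cells/well, overnight attachment; 5 hr compound; 2 hr RT substrate; dual-emission fluorescence.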

[18] = ratio activity, negative = inhibition: at 62.6 µM (top of the series) unless noted
[19] = activation: at 73.3 µM (top of the series) unless noted
Tags tell the direction and shape of the fitted curve or compound fluorescence and quenching.

Chain of UniProt Q03181 (Q03181 whole entry, looked up): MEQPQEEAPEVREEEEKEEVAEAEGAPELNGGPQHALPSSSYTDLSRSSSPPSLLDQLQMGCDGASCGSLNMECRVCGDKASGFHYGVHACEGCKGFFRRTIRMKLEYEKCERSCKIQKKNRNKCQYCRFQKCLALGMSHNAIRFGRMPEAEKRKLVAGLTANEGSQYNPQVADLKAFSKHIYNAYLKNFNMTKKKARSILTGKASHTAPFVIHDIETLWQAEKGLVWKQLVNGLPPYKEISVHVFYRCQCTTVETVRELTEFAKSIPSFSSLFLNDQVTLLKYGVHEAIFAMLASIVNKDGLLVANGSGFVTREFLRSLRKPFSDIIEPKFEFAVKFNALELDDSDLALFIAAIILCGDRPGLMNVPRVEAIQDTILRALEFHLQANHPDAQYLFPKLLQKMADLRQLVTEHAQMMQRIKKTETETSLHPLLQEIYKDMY
Chain of UniProt P37231 (P37231 whole entry, looked up): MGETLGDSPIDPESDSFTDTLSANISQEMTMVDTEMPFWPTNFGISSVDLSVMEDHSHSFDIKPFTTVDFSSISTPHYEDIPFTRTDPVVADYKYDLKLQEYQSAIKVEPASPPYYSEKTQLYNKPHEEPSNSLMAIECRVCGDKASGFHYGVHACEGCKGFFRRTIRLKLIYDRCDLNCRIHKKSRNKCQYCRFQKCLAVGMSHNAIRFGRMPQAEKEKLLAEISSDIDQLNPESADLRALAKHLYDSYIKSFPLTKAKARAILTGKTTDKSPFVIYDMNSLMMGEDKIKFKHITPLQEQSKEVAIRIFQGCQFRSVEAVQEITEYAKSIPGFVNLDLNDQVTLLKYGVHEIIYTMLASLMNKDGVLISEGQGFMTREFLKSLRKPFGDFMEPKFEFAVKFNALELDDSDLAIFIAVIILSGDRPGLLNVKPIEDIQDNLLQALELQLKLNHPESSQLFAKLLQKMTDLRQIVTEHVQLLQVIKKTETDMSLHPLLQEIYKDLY
Chain of UniProt P11473 (P11473 whole entry, looked up): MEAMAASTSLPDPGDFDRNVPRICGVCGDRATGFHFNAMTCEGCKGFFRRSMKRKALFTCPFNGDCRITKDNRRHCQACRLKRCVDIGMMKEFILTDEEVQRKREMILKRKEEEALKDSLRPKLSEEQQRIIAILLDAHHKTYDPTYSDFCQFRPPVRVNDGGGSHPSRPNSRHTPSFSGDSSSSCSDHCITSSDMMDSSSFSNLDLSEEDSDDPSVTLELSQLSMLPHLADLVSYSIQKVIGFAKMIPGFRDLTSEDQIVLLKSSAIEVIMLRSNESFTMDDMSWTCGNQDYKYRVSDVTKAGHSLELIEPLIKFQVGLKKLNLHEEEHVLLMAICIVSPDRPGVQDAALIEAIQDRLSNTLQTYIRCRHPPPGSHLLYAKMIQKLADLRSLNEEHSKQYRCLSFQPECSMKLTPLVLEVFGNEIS
Chain of UniProt Q96RI1 (Q96RI1 whole entry, looked up): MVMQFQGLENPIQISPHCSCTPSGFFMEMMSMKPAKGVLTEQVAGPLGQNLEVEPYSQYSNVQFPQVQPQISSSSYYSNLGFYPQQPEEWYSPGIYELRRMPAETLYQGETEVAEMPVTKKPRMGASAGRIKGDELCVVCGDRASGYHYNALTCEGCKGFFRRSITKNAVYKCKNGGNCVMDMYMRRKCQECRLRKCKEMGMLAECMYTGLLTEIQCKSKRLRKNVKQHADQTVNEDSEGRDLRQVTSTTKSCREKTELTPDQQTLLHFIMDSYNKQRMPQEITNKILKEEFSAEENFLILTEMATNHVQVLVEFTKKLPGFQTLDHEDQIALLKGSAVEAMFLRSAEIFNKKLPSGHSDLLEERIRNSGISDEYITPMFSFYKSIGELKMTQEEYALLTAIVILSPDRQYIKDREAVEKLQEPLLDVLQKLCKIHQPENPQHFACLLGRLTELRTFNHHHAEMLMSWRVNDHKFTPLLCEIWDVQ

COC(=O)N(OC)c1ccccc1COc1ccn(-c2ccc(Cl)cc2)n1
Potency [1, 18]: inconclusive: 1.23 µM [rising, partial curve] | Potency [2]: inconclusive: 0.0062 µM [cytotoxic, full curve, poor fit] | Potency [3, 19]: active: 433 nM | Potency [4]: active: 43.3 µM | Potency [5]: inconclusive: 7.76 µM | Potency [6]: inconclusive: 2.75 µM [cytotoxic, partial curve, poor fit] | Potency [7]: inconclusive: 0.977 µM [rising, full curve, poor fit] | Potency [8]: inconclusive: 3.09 µM [cytotoxic, partial curve, poor fit] | Potency [9]: inconclusive: 4.9 µM [rising, partial curve, poor fit] | Potency [10]: inconclusive: 21.9 µM [partial curve] | Potency [11]: inconclusive: 21.9 µM | Potency [12]: inconclusive: 1.38 µM [cytotoxic, full curve] | Potency [13]: inconclusive: 0.436 µM [cytotoxic, full curve, poor fit]

CON(C)C(=O)Nc1ccc(Cl)c(Cl)c1
ratio activity, negative = inhibition ([1]; at 62.6 µM (top of the series)): inconclusive: -28.7% | ratio activity, negative = inhibition ([1]; at 81.1 µM (top of the series)): inconclusive: -30.3% | Potency [2]: inconclusive: 6.16 µM [cytotoxic, full curve, poor fit] | activation [3, 19]: inconclusive: 51.2% [at 94.8 µM] | activation ([3]; at 73.3 µM (top of the series)): inactive: 2.55% | Potency [14]: inconclusive: 61.9 µM [rising, single point] | Potency [8]: inconclusive: 8.75 µM [cytotoxic, full curve, poor fit] and inconclusive: 13.8 µM [cytotoxic, partial curve, poor fit] | Potency [15]: inactive | Potency [16]: inconclusive: 21.9 µM [falling, partial curve, poor fit] | activity change, negative = inhibition [11]: inconclusive: 19.4%

Clc1ccc(Cl)cc1
ratio activity, negative = inhibition [1, 18]: inconclusive: 3.46%

COc1ccc2c(c1OC)C(=O)O[C@@H]2[C@H]1c2cc3c(cc2CCN1C)OCO3
Potency [1, 18]: inactive | Potency [2]: inconclusive: 0.61 µM [cytotoxic, full curve, poor fit] | Potency [3, 19]: inactive | Potency [4]: inactive

O=C(CCl)c1ccccc1
Potency [1, 18]: inconclusive: 61.6 µM [activator] | ratio activity, negative = inhibition [1, 18]: inconclusive: -21.9% [at 81.1 µM] | Potency [3, 19]: inconclusive: 55.3 µM [rising, partial curve] and inconclusive: 34.4 µM [rising, partial curve] | Potency [14]: active: 24.5 µM | Potency [5]: inconclusive: 62.5 µM and inconclusive: 37.4 µM | Potency [6]: inconclusive: 43.6 µM [cytotoxic, partial curve, poor fit] | activation [7]: inconclusive: 6.29% | ratio activity, negative = inhibition [9]: inconclusive: 7.05% | Potency [15]: inconclusive: 21.9 µM [rising, single point]

CC(C)(O)C(Cl)(Cl)Cl
Potency [12]: inconclusive: 11.9 µM [cytotoxic, partial curve, poor fit] | Potency [17]: inactive
